Assay results published in the supplement of paper PMC10126150.
Values marked as one replicate rest on one cluster of the flow cell; about a third of the high ones do not repeat.

System: ATP
Test: switch fluorescence ratio, 500 uM ATP over buffer (Cy3 cluster intensity, sum of 5 cycles each) (fold (ratio)); higher = stronger signal-on switching upon ATP binding; sequences stand for … in TCGTCGGCAGCGTCAGATGTGTATAAGAGACAGTTTTTTTTTTTTTTTTTTTTTTTTT…TC
Details: aptamer strand: ATP DNA aptamer (quencher-CACCTGGGGGAGTATTGCGGAGGAAGG + anchor), 100 nM annealed; ATP concentration: 500 uM; one replicate
Procedure, shortened: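 Clusters with intensities outside 100-1000 RFU were excluded. The remaining Cy3-labelled switching-strand clusters on a modified Illumina MiSeq flow-cell had been annealed to 100 nM quencher-labelled ATP aptamer and imaged in selection buffer, then after 15 min with 500 uM ATP at 22 °C, for five cycles separated by NaOH stripping and re-annealing. The fluorescence ratio, averaged per switch-domain sequence, is each cluster's summed target-cycle Cy3 intensity over its summed buffer-cycle Cy3 intensity.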
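Note: ATP exposure 15 min at 22 °C before imaging.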

| Sequence | switch fluorescence ratio |
| --- | --- |
| TTCTGTTTGT | 1.01 |
| TCGGACGGTT | 1.03 |
| ATCTTTATGC | 1.33 |
| GACCGCTGTG | 0.93 |
| TAGTCAATTG | 0.995 |
| GAGCAGGCTG | 0.975 |
| ATGGCCTGTG | 1.02 |
| TGCGAGAGCT | 1.07 |
| CGTCAGAGTT | 0.982 |
| AAATGGACAT | 0.98 |
| TATAAAATCC | 1.02 |
| CTTATTAACA | 1.03 |
| ACGTTCAAAG | 1.04 |
| ATATGTATAG | 1.05 |
| AGTACCCAT | 1.05 |
| GTAAATTTCT | 1.06 |
| ATGAGTGACT | 0.972 |
| GCGTGTCTG | 1 |
| TTGTCCAGAC | 1.03 |
| TGACTTCTGG | 0.995 |
| GCGATAGTCA | 1 |
| CGCAACTCTT | 2.05 |
| TTAGACTAGC | 1.03 |

| Sequence | switch fluorescence ratio |
| --- | --- |
| GAACGATTAG | 0.968 |
| TGCATGAGGT | 0.996 |
| GATACGCGT | 1.01 |
| TGTGGGCA | 0.999 |
| AAGATAATT | 0.991 |
| ATTCACCATA | 1.07 |
| TTTCTTTTAA | 1.01 |
| TTTAGAAGCC | 0.986 |
| TCTTACTCTG | 1.26 |
| CCGTGATCGC | 2.48 |
| GGGGGGTCAT | 1.02 |
| CTGGGTATAA | 1 |
| GGGGGTCGAT | 1.03 |
| GAGACAACGT | 0.957 |
| GTACATTTGT | 1.01 |
| TCGAGCGCTG | 1.04 |
| TTGAACCCTG | 1 |
| TTATGAA | 0.986 |
| TTATAAAGTA | 1.01 |
| TTACGGATTT | 1.07 |
| CTAGGGTTCG | 0.985 |
| GCTGCCTAGT | 0.978 |
| ACCTGCTAGC | 1.03 |

| Sequence | switch fluorescence ratio |
| --- | --- |
| GCCGTTCTCG | 1 |
| ATCGGGAT | 1.03 |
| AGTTGTAAAA | 0.984 |
| CTCTGTTACC | 1.1 |
| CAGTTCAGGC | 1.03 |
| GTTGGGTTGT | 1.03 |
| GGAGGAGACG | 0.985 |
| CACGACAAGG | 0.99 |
| CCCCAGCGGA | 1.33 |
| TACGGGGCTC | 1.03 |
| AAAGTTTGAG | 1 |
| GTTGGTTATA | 0.986 |
| GAGATTTCGT | 0.995 |
| ACAGTACCTT | 1.37 |
| TTTTTGG | 0.977 |
| CTCCTGAGGT | 0.994 |
| ACGTAAACTT | 1.11 |
| CCACGACCCG | 1.11 |
| ACAAGTTTA | 0.982 |
| GGGAGATCGG | 1 |
| ATAAACACG | 1.04 |
| TCGAACCCCC | 1.01 |
| GAGCAAAACG | 1.69 |

| Sequence | switch fluorescence ratio |
| --- | --- |
| TCCGGGTGTC | 1.4 |
| TTGCCAGCAC | 1.11 |
| GTAGTGTTCT | 0.984 |
| TTTTTGCACG | 1.04 |
| CTTGGTCGT | 0.954 |
| CTTGCGGGCC | 1.01 |
| TAAATTCGTT | 1.03 |
| TTCATAATGC | 1.05 |
| GACGTATCTC | 1.05 |
| TACTCCATCT | 1.06 |
| TGAAGTACGA | 1.13 |
| TTGAACCATT | 1 |
| TTGTGGCGGC | 0.978 |
| AACCTCCTGA | 1.12 |
| GAAGTGCCTT | 0.997 |
| TCAGGCAATT | 1.29 |
| GCGGGTTGT | 1.06 |
| CCTGATCCTC | 1.04 |
| TCGATGGTCA | 0.986 |
| AAGTTATT | 0.988 |
| TGCACCATGG | 0.977 |
| GGCATCTTG | 0.977 |
| CGCTGCGATT | 1.01 |

| Sequence | switch fluorescence ratio |
| --- | --- |
| CTACGACGGC | 1.34 |
| TATCCCAATT | 1.09 |
| GGATCGATCT | 0.972 |
| GCCAGACAGT | 0.998 |
| TATAGAACAA | 1.02 |
| GGCCCACGA | 1 |
| ACCTAGATGT | 1.07 |
| CCAGAAGTAT | 1.02 |
| GCGTTTATCA | 1.05 |
| ACTAAGCA | 1.08 |
| TCTTATAAA | 1.02 |
| AGTTCACGGG | 1.02 |
| TCCTGTCCGG | 1.02 |
| GGAGCCTTTT | 0.965 |
| ATCTCTAGAT | 0.994 |
| GTGGAGGGTC | 1.03 |
| AAGCAGTAAT | 1.04 |
| AGGCACTGGT | 1.05 |
| TTCCGTCTGT | 1 |
| AATCCTTCTT | 1.11 |
| TGATTCAAGG | 1 |
| TGTTTCTGAC | 1.02 |
| TACCATTGTT | 1.01 |

| Sequence | switch fluorescence ratio |
| --- | --- |
| AAGTATGT | 1.03 |
| AAAATTGATT | 1.02 |
| CGCTAGCCTT | 1.04 |
| ACGTGGACGT | 1.01 |
| GTGTAATAGC | 0.962 |
| CTCCGTAGA | 5.19 |
| AACGATGGAG | 0.996 |
| ACCTCAGGAA | 1.25 |
| CTTATTGGGC | 1.03 |
| TGAAAGGGTG | 1.07 |
| GGTCTCACG | 1.02 |
| GGGGGCGATG | 1.04 |
| GCGCCAGATA | 1.01 |
| CCGCAGATTT | 2.83 |
| CCCACTCATT | 1.06 |
| GCATCCATTG | 1.01 |
| GGGTCCGAGC | 1.07 |
| TGGGGCGGCA | 0.975 |
| CACTCTCGGT | 1.03 |
| TTATGTGAAC | 1.03 |
| TCATACGTGT | 1.04 |
| TGGCGCTCAG | 1 |
| ACGTGGTGCG | 0.939 |

| Sequence | switch fluorescence ratio |
| --- | --- |
| TTCTACGTGT | 0.971 |
| GAGTCCAA | 1.04 |
| GAAAAATAGG | 0.998 |
| CAGTTATGAA | 1.03 |
| ATGGGAGAAC | 1.03 |
| AATAGTGTTT | 0.972 |
| CGCTAGCTGA | 1.01 |
| GAGAGTCTCA | 1.01 |
| TCTGGGTCGA | 1.03 |
| TCGATATGGC | 0.931 |
| CATCAGCC | 1.27 |
| AATAGATCAG | 0.963 |
| AGTTAGGCGC | 1 |
| AACTCGCCAC | 1.2 |
| CGTCGTAGCA | 1 |
| GCTTCGCTTT | 1.16 |
| GACACATGGT | 0.947 |
| AAAGATCGGG | 0.965 |
| AATGGAATGC | 1.06 |
| ACTCTTAT | 1.09 |
